Measured values taken from patent US7423058B2, “Inhibitors of hepatitis C virus NS3 protease” (Schering Corporation, priority 2004, dated 2008).

target: Recombinant heterodimeric HCV NS3/NS4A protease (strain 1a) (Hepatitis C virus genotype 1a, UniProt P27958); assay: Spectrophotometric assay for HCV protease inhibitory activity (chromogenic ester substrates); format: biochemical; conditions: Table 1: Ketones; read-out: Ki* Range

| SMILES | Ki |
| --- | --- |
| C=CCNC(=O)C(=O)C(CCC(F)(F)F)NC(=O)[C@@H]1[C@@H]2[C@H](CN1C(=O)[C@@H](NC(=O)N[C@H](C(=O)C1CC1)C1CCCCC1)C(C)(C)C)C2(C)C (stereo partly shown) [compound 4129] | < 75 nM |
| CC(C)[C@H](NC(=O)N[C@H](C(=O)N1C[C@H]2[C@@H]([C@H]1C(=O)NC(CC1CC1)C(=O)C(N)=O)C2(C)C)C(C)(C)C)C(=O)c1ccc(C(F)(F)F)cc1 (stereo partly shown) [compound 4130] | < 75 nM |
| CCCC(NC(=O)[C@@H]1[C@@H]2[C@H](CN1C(=O)[C@@H](NC(=O)N[C@H](C(=O)C1CC1)C1CCCCC1)C(C)(C)C)C2(C)C)C(=O)C(=O)NC (stereo partly shown) [compound 4131] | < 75 nM |
| CCCNC(=O)C(=O)C(CCC(F)(F)F)NC(=O)[C@@H]1[C@@H]2[C@H](CN1C(=O)[C@@H](NC(=O)N[C@H](C(=O)C1CC1)C(C)C)C(C)(C)C)C2(C)C (stereo partly shown) [compound 4133] | < 75 nM |
| C=CCNC(=O)C(=O)C(CCC)NC(=O)[C@@H]1[C@@H]2[C@H](CN1C(=O)[C@@H](NC(=O)N[C@H](C(=O)c1cccc(OC)n1)C(C)C)C(C)(C)C)C2(C)C (stereo partly shown) [compound 4134] | < 75 nM |
| C=CCNC(=O)C(=O)C(CC1CC1)NC(=O)[C@@H]1[C@@H]2[C@H](CN1C(=O)[C@@H](NC(=O)N[C@H](C(=O)C1CC1)C(C)C)C(C)(C)C)C2(C)C (stereo partly shown) [compound 4135] | < 75 nM |
| CC(C)[C@H](NC(=O)N[C@H](C(=O)N1C[C@H]2[C@@H]([C@H]1C(=O)NC(CC1CC1)C(=O)C(N)=O)C2(C)C)C(C)(C)C)C(=O)c1ccccc1N(C)C (stereo partly shown) [compound 4136] | < 75 nM |
| C=CCNC(=O)C(=O)C(CCC)NC(=O)[C@@H]1[C@@H]2[C@H](CN1C(=O)[C@@H](NC(=O)N[C@H](C(=O)C(C)(C)C)C(C)C)C(C)(C)C)C2(C)C (stereo partly shown) [compound 4137] | < 75 nM |
| C=CCNC(=O)C(=O)C(CCC)NC(=O)[C@@H]1[C@@H]2[C@H](CN1C(=O)[C@@H](NC(=O)N[C@H](C(=O)C1CC1)C(C)(C)C)C(C)(C)C)C2(C)C (stereo partly shown) [compound 4138] | < 75 nM |
| C=CCNC(=O)C(=O)C(CCCC)NC(=O)[C@@H]1[C@@H]2[C@H](CN1C(=O)[C@@H](NC(=O)N[C@H](C(=O)C1CC1)C1CCCCC1)C(C)(C)C)C2(C)C (stereo partly shown) [compound 4139] | < 75 nM |
| C=CCNC(=O)C(=O)C(CCC)NC(=O)[C@@H]1[C@@H]2[C@H](CN1C(=O)[C@@H](NC(=O)N[C@H](C(=O)c1ccc(N(C)C)cc1)C1CCCCC1)C(C)(C)C)C2(C)C (stereo partly shown) [compound 4140] | < 75 nM |
| C=CCNC(=O)C(=O)C(CCC)NC(=O)[C@@H]1[C@@H]2[C@H](CN1C(=O)[C@@H](NC(=O)NC(C(=O)c1ccccc1)C(C)(C)C)C(C)(C)C)C2(C)C (stereo partly shown) [compound 4141] | < 75 nM |
| CC(C)[C@@H](CC(=O)C(C)(C)C)NC(=O)N[C@H](C(=O)N1C[C@H]2[C@@H]([C@H]1C(=O)NC(CC1CC1)C(=O)C(N)=O)C2(C)C)C(C)(C)C (stereo partly shown) [compound 4143] | < 75 nM |
| C=CCNC(=O)C(=O)C(CCC(F)(F)F)NC(=O)[C@@H]1[C@@H]2[C@H](CN1C(=O)[C@@H](NC(=O)N[C@H](C(=O)C1CC1)C1CCCCC1)C1CCCCC1)C2(C)C (stereo partly shown) [compound 4144] | < 75 nM |
| C=CCNC(=O)C(=O)C(CCC)NC(=O)[C@@H]1[C@@H]2[C@H](CN1C(=O)[C@@H](NC(=O)N[C@H](C(=O)c1nc(C)cs1)C(C)C)C(C)(C)C)C2(C)C (stereo partly shown) [compound 4145] | < 75 nM |
| C=CCNC(=O)C(=O)C(CCC)NC(=O)[C@@H]1[C@@H]2[C@H](CN1C(=O)[C@@H](NC(=O)N[C@H](C(=O)C1CCC1)C(C)C)C(C)(C)C)C2(C)C (stereo partly shown) [compound 4146] | < 75 nM |
| CC(C)(C)[C@H](NC(=O)N[C@H](C(=O)N1C[C@H]2[C@@H]([C@H]1C(=O)NC(CC1CC1)C(=O)C(N)=O)C2(C)C)C(C)(C)C)C(=O)c1nccs1 (stereo partly shown) [compound 4148] | < 75 nM |

| SMILES | Ki |
| --- | --- |
| C=CCNC(=O)C(=O)C(CCCC)NC(=O)[C@@H]1[C@@H]2[C@H](CN1C(=O)[C@@H](NC(=O)N[C@H](C(=O)C1CC1)C(C)C)C(C)(C)C)C2(C)C (stereo partly shown) [compound 4149] | < 75 nM |
| CNC(=O)C(=O)C(CCC(F)(F)F)NC(=O)[C@@H]1[C@@H]2[C@H](CN1C(=O)[C@@H](NC(=O)N[C@H](C(=O)C1CC1)C(C)C)C(C)(C)C)C2(C)C (stereo partly shown) [compound 4150] | < 75 nM |
| C=CCNC(=O)C(=O)C(CCC)NC(=O)[C@@H]1[C@H]2CC(C)(C)O[C@H]2CN1C(=O)[C@@H](NC(=O)N[C@H](C(=O)c1ccccc1)C(C)C)C(C)(C)C (stereo partly shown) [compound 4151] | < 75 nM |
| CNC(=O)C(=O)C(CC1CC1)NC(=O)[C@@H]1[C@@H]2[C@H](CN1C(=O)[C@@H](NC(=O)N[C@H](C(=O)c1ccccc1)C(C)C)C(C)(C)C)C2(C)C (stereo partly shown) [compound 4152] | < 75 nM |
| C=CCNC(=O)C(=O)C(CC1CC1)NC(=O)[C@@H]1[C@@H]2[C@H](CN1C(=O)[C@@H](NC(=O)N[C@H](C(=O)c1ccccc1)C(C)C)C(C)(C)C)C2(C)C (stereo partly shown) [compound 4153] | < 75 nM |
| CCC(CC)[C@H](NC(=O)N[C@H](C(=O)c1ccccc1)C(C)C)C(=O)N1C[C@H]2[C@@H]([C@H]1C(=O)NC(CC1CC1)C(=O)C(N)=O)C2(C)C (stereo partly shown) [compound 4154] | < 75 nM |
| CCCNC(=O)C(=O)C(CCC(F)(F)F)NC(=O)[C@@H]1[C@@H]2[C@H](CN1C(=O)[C@@H](NC(=O)N[C@H](C(=O)C1CC1)C(C)C)C1CCCCC1)C2(C)C (stereo partly shown) [compound 4155] | < 75 nM |
| CNC(=O)C(=O)C(CC1CC1)NC(=O)[C@@H]1[C@@H]2[C@H](CN1C(=O)[C@@H](NC(=O)N[C@H](C(=O)C1CC1)C(C)C)C(C)(C)C)C2(C)C (stereo partly shown) [compound 4156] | < 75 nM |
| CNC(=O)C(=O)C(CC1CC1)NC(=O)[C@@H]1[C@@H]2[C@H](CN1C(=O)[C@@H](NC(=O)N[C@H](C(=O)c1ccc(N(C)C)cc1)C(C)C)C(C)(C)C)C2(C)C (stereo partly shown) [compound 4157] | < 75 nM |
| C=CCNC(=O)C(=O)C(CCC)NC(=O)[C@@H]1[C@@H]2[C@H](CN1C(=O)[C@@H](NC(=O)N[C@H](C(=O)c1nccs1)C1CCCCC1)C(C)(C)C)C2(C)C (stereo partly shown) [compound 4158] | < 75 nM |
| CC(C)[C@H](NC(=O)N[C@H](C(=O)N1C[C@H]2[C@@H]([C@H]1C(=O)NC(CC1CC1)C(=O)C(N)=O)C2(C)C)C(C)(C)C)C(=O)c1ccc(Oc2ccccc2)cc1 (stereo partly shown) [compound 4160] | < 75 nM |
| CCCNC(=O)C(=O)C(CCC)NC(=O)[C@@H]1[C@@H]2[C@H](CN1C(=O)[C@@H](NC(=O)N[C@H](C(=O)C1CC1)C1CCCCC1)C(C)(C)C)C2(C)C (stereo partly shown) [compound 4161] | < 75 nM |
| CNC(=O)C(=O)C(CCC(F)(F)F)NC(=O)[C@@H]1[C@@H]2[C@H](CN1C(=O)[C@@H](NC(=O)N[C@H](C(=O)C(C)C)C(C)C)C(C)(C)C)C2(C)C (stereo partly shown) [compound 4162] | < 75 nM |
| CC(C)[C@H](OC(=O)N[C@H](C(=O)N1C[C@H]2[C@@H]([C@H]1C(=O)NC(CC1CC1)C(=O)C(N)=O)C2(C)C)C1CCCCC1)C(=O)c1ccccc1 (stereo partly shown) [compound 4163] | < 75 nM |
| C=C(F)CNC(=O)C(=O)C(CCC)NC(=O)[C@@H]1[C@@H]2[C@H](CN1C(=O)[C@@H](NC(=O)N[C@H](C(=O)C1CC1)C1CCCCC1)C(C)(C)C)C2(C)C (stereo partly shown) [compound 4164] | < 75 nM |
| CC(C)[C@H](OC(=O)N[C@H](C(=O)N1C[C@H]2[C@@H]([C@H]1C(=O)NC(CC1CC1)C(=O)C(N)=O)C2(C)C)C1(C(F)(F)F)CC1)C(=O)c1ccccc1 (stereo partly shown) [compound 4165] | < 75 nM |
| CC(C)(C)[C@H](NC(=O)N[C@H]1CCCCC1=O)C(=O)N1C[C@H]2[C@@H]([C@H]1C(=O)NC(CC1CC1)C(=O)C(N)=O)C2(C)C (stereo partly shown) [compound 4166] | < 75 nM |
